This note sets out measurements from the antibiotic and cytotoxicity screens of Wong et al. (2023).

The test system of one test is HSkMC. As to the kind of experiment: cytotoxicity call (relative viability < 0.9). The following applies: 10 µM.
A further test deals with HepG2. In words: cytotoxicity call (relative viability < 0.9). Conditions: 10 µM.
For another test, the system named is S. aureus RN4220. In words: growth inhibition call (relative growth <= 0.2). The following applies: 50 µM.

The list shows a part of the results.

Take `C[C@@H]1CN([C@H](C)CO)C(=O)c2cc(NS(=O)(=O)c3cccs3)ccc2O[C@H]1CN(C)S(=O)(=O)c1cccs1`: the cytotoxicity call in the test with HSkMC was “inactive”. Moreover, the cytotoxicity call in the test on HepG2 is “active”. Further, the growth inhibition call with S. aureus RN4220 was “inactive”.

`CN(C)C(CCOc1cccc2ccccc12)c1ccccc1.Cl` (stereo not drawn): the cytotoxicity call in the test with HSkMC is “inactive”. In the test on HepG2, the cytotoxicity call was “active”. Besides, the growth inhibition call in the test on S. aureus RN4220 is “inactive”.

For the compound `C[C@@H]1CN([C@@H](C)CO)C(=O)Cc2cc(NC(=O)Nc3ccc(C(F)(F)F)cc3)ccc2O[C@H]1CN(C)C(=O)NC1CCCCC1`, the cytotoxicity call in the test with HSkMC and with HepG2 was “inactive” in each case. Also, the growth inhibition call with S. aureus RN4220 is “inactive”.

For `O=C(C[C@H]1CC[C@@H]2[C@H](COC[C@@H](O)CN2S(=O)(=O)c2cccc(Cl)c2)O1)N1CCOCC1`, the cytotoxicity call with HSkMC and in the test on HepG2 was “inactive” throughout. Besides, in the test with S. aureus RN4220, the growth inhibition call is “inactive”.

On to `C[C@@H]1CN([C@@H](C)CO)C(=O)c2cc(NC(=O)NC3CCCCC3)ccc2O[C@@H](C)CCCCO[C@@H]1CN(C)S(=O)(=O)c1ccc(Cl)cc1`, for which the cytotoxicity call in the test on HSkMC and in the test with HepG2 was “inactive” throughout. Moreover, the growth inhibition call with S. aureus RN4220 was “inactive”.

Regarding `C[C@@H]1CCCCO[C@H](CN(C)C(=O)Nc2ccc3c(c2)OCO3)[C@@H](C)CN([C@H](C)CO)C(=O)c2cc(NS(=O)(=O)c3cccs3)ccc2O1`, the cytotoxicity call in the test on HSkMC and in the test with HepG2 was “inactive” in each case. The growth inhibition call with S. aureus RN4220 is “inactive”.

Turning to `CN1CCN(C(=O)C[C@@H]2C[C@@H]3c4cc(NC(=O)c5ccc6c(c5)OCO6)ccc4O[C@@H]3[C@H](CO)O2)CC1`, the cytotoxicity call in the test on HSkMC and with HepG2 was “inactive” in each case. In addition, the growth inhibition call in the test with S. aureus RN4220 is “inactive”.

Consider `C[C@@H]1CN([C@@H](C)CO)C(=O)Cc2cc(NC(=O)Nc3ccc(F)cc3)ccc2O[C@H]1CN(C)CC1CCCCC1`, for which the cytotoxicity call in the test on HSkMC and in the test on HepG2 was “inactive” throughout. For the same compound, in the test with S. aureus RN4220, the growth inhibition call is “inactive”.

For `CC(=O)N(C)C[C@@H]1Oc2ncc(C#C[C@@H](C)O)cc2C(=O)N([C@H](C)CO)C[C@H]1C`, the cytotoxicity call in the test with HSkMC and in the test with HepG2 was “inactive” in each case. The growth inhibition call with S. aureus RN4220 was “inactive”.

In the case of `Cc1ccccc1-c1ccc2c(c1)O[C@@H](CN(C)C(=O)Nc1ccc(C(F)(F)F)cc1)[C@@H](C)CN([C@H](C)CO)S2(=O)=O`, the cytotoxicity call in the test on HSkMC and with HepG2 was “inactive” each time. Moreover, in the test on S. aureus RN4220, the growth inhibition call is “inactive”.

As to `Cc1noc(C)c1NC(=O)Nc1cccc2c1O[C@@H](CN(C)S(=O)(=O)c1cn(C)cn1)[C@@H](C)CN([C@@H](C)CO)C2=O`, the cytotoxicity call in the test with HSkMC and with HepG2 was “inactive” in each case. Besides, the growth inhibition call with S. aureus RN4220 was “inactive”.

For `C[C@@H]1CN([C@@H](C)CO)C(=O)Cc2cc(NC(=O)CCC(F)(F)F)ccc2O[C@H]1CN(C)S(C)(=O)=O`, the cytotoxicity call in the test on HSkMC and with HepG2 was “inactive” each time. Besides, in the test on S. aureus RN4220, the growth inhibition call is “inactive”.

`C[C@H](CO)N1C[C@H](C)[C@H](CN(C)C(=O)Cc2ccccn2)Oc2cc(C#C[C@@H](C)O)ccc2S1(=O)=O`: the cytotoxicity call in the test on HSkMC and in the test on HepG2 was “inactive” in each case. For the same compound, in the test on S. aureus RN4220, the growth inhibition call was “inactive”.

For the compound `CCS(=O)(=O)N1CCNCC1`, the cytotoxicity call in the test on HSkMC and with HepG2 was “inactive” each time. Also, the growth inhibition call with S. aureus RN4220 is “inactive”.

Turning to `Cc1cc2cc3c(C)cc(=O)oc3c(C)c2o1`, the cytotoxicity call with HSkMC and in the test on HepG2 was “inactive” each time. The growth inhibition call with S. aureus RN4220 was “inactive”.

For `c1cn(-c2ccc(-n3ccnc3)nn2)cn1`, the cytotoxicity call with HSkMC and in the test on HepG2 was “inactive” throughout. In addition, in the test with S. aureus RN4220, the growth inhibition call was “inactive”.

As to `COc1ccc(-c2cnc3c(c2)C(=O)N([C@H](C)CO)C[C@@H](C)[C@H](CN(C)C(=O)Cc2cccnc2)O3)cc1`, the cytotoxicity call in the test with HSkMC and in the test with HepG2 was “inactive” in each case. Besides, the growth inhibition call with S. aureus RN4220 was “inactive”.

`C[C@@H]1CN([C@@H](C)CO)S(=O)(=O)c2ccc(C#Cc3ccccc3)cc2O[C@@H]1CN(C)C(=O)c1ccccn1`: the cytotoxicity call in the test with HSkMC and with HepG2 was “inactive” throughout. In the test with S. aureus RN4220, the growth inhibition call is “inactive”.

On to `CC(C)(C)[S@@](=O)N1Cc2cc(C(=O)N[C@@H]3CCN(Cc4ccccc4)C3)nc(-c3cccc(-c4ccncc4)c3)c2[C@H]1CCO`, for which the cytotoxicity call in the test with HSkMC and in the test on HepG2 was “inactive” throughout. Moreover, the growth inhibition call with S. aureus RN4220 was “inactive”.

As to `C[C@H]1CN([C@@H](C)CO)C(=O)c2cc(NC(=O)Cn3cnnn3)ccc2O[C@@H]1CN(C)S(=O)(=O)c1ccccc1`, the cytotoxicity call in the test on HSkMC and with HepG2 was “inactive” throughout. Further, the growth inhibition call in the test on S. aureus RN4220 is “inactive”.

For `c1ccc(-c2nc(C34CC5CC(CC(C5)C3)C4)cs2)cc1`, the cytotoxicity call in the test with HSkMC and in the test with HepG2 was “inactive” each time. In the test on S. aureus RN4220, the growth inhibition call is “inactive”.

Turning to `C[C@H](CO)N1C[C@H](C)[C@@H](CN(C)S(=O)(=O)c2cn(C)cn2)Oc2ccc(NC(=O)C3CCCCC3)cc2C1=O`, the cytotoxicity call in the test on HSkMC and with HepG2 was “inactive” in each case. Besides, the growth inhibition call in the test with S. aureus RN4220 was “inactive”.

Turning to `COc1ccc(NC(=O)N(C)C[C@H]2Oc3ccc(NC(=O)C4CC4)cc3CC(=O)N([C@@H](C)CO)C[C@H]2C)cc1`, the cytotoxicity call in the test on HSkMC and in the test on HepG2 was “inactive” each time. Moreover, the growth inhibition call with S. aureus RN4220 is “inactive”.

On to `COc1ccc([C@H]([C@H](Cc2ccccc2)OC(C)=O)N(C[C@@H](/C=C/c2ccccc2)CC(=O)N(C)C)[C@@H](Cc2ccccc2)C(OC)OC)cc1`, for which the cytotoxicity call in the test on HSkMC was “inactive”. The cytotoxicity call with HepG2 was “active”. In addition, in the test on S. aureus RN4220, the growth inhibition call is “inactive”.

With `CO[C@H]1CN(C)C(=O)c2ccc(NS(=O)(=O)CC(F)(F)F)cc2OC[C@H](C)N(Cc2ccccn2)C[C@@H]1C`, the cytotoxicity call in the test on HSkMC (human skeletal muscle cells) and in the test with HepG2 was “inactive” each time. Moreover, the growth inhibition call in the test on S. aureus RN4220 is “inactive”.

With `NC(=O)N1CCC[C@@H]1C(=O)O`, the cytotoxicity call with HSkMC and in the test with HepG2 was “inactive” in each case. In addition, the growth inhibition call with S. aureus RN4220 was “inactive”.
